Assay results from US20220218614A1, “IONIZABLE CATIONIC LIPIDS AND LIPID NANOPARTICLES, AND METHODS OF SYNTHESIS AND USE THEREOF” (Tidal Therapeutics, Inc., priority 2020, published 2022).
“Also recorded” adds a separate entry of the source.

Columns and labels:
human CD3 T cells = experiment: Transfection of human CD3 T cells (CD8 and CD4 subsets) with Fab/Nb-targeted LNPs; type: cell-based; details: approximately 24 hr; for % GFP transfection and GFP expression (MFI) of CD8 and CD4 T cells, in words: targeted Lipid 8 LNP (Lipid 5 in Example 43), GFP mRNA approximately 2.5 μg/mL
Protocol: (§1) LNPs were prepared using the mixing process described in Example 6, the buffer exchange process described below in Example 21. Using methods similar to Example 12, hSP34 and TRX2 Fab-lipid conjugates and a non-T cell specific anti-HER2 lipid-conjugate (Nellis D F, Ekstrom D L, Kirpotin D B, Zhu J, Andersson R, Broadt T L, Ouellette T F, Perkins S C, Roach J M, Drummond D C, Hong K, Marks J D, Park J W and Giardina S L (2005) Preclinical manufacture of an anti-HER2 scFv-PEG-DSPE, liposome-inserting conjugate. 1. Gram-scale production and purification. Biotechnol Prog 21:205-220) were post-inserted at various densities (SP34 0.25-17 g/mol; TRX2 0.25-9 g/mol; SP34+TRX2 0.25-9 g/mol each conjugate; anti-HER2 17 g/mol) into LNPs containing Lipid 8 and anti-CD20 targeting CART mRNA. Transfections were performed with human CD3 T cells at approximately 2.5 μg/mL mRNA for approximately 24 hr. For FACS analysis T cells were stained with M1 antibody (Sigma, F3040) that bind a N-terminus FLAG-tag variant sequence on the TTR-023 CAR (sequence provided below) in addition to staining for CD69 (Biolegend, 310930) and CD4 (Biolegend, 344648) to differentiate CD8 from CD4 cells.
LNPs were prepared using the mixing process described in Example 6, the buffer exchange process described in Example 21. Using methods similar to Example 12, hSP34, TRX2, and Ibalizumab Fab-lipid conjugates and a non-T cell specific anti-HER2 lipid-conjugate were post-inserted at various densities (specified in FIGS. 20A and 20B into LNPs containing Lipid 8 and Cy5/GFP mRNA. Transfections were performed with human CD3 T cells at approximately 2.5 μg/mL mRNA for approximately 24 hr and stained for CD69 (Biolegend, 310930) and CD4 (Biolegend, 344648) to differentiate CD8 from CD4 cells by FACS analysis.
LNPs were prepared using the mixing process described in Example 6, the buffer exchange process described in Example 21. […] Levels of transfection of CD3 T cells was measured by flow cytometry. […]

IFNγ = experiment: Human IFNγ ELISA of T cell culture supernatants after LNP transfection; type: cell-based; details: T cells approximately 24 hr after targeted LNPs at approximately 2.5 μg/mL mRNA
Protocol: (§2) LNPs were prepared using the mixing process described in Example 6, the buffer exchange process described in Example 21. hSP34 and TRX2 Fab-lipid conjugates generated from methods described in Example 4 and a non-T cell specific anti-HER2 lipid-conjugate (Nellis D F, Ekstrom D L, Kirpotin D B, Zhu J, Andersson R, Broadt T L, Ouellette T F, Perkins S C, Roach J M, Drummond D C, Hong K, Marks J D, Park J W and Giardina S L (2005) Preclinical manufacture of an anti-HER2 scFv-PEG-DSPE, liposome-inserting conjugate. 1. Gram-scale production and purification. Biotechnol Prog 21:205-220) were post-inserted at various densities (SP34 0.6-17 g/mol; TRX2 3-9 g/mol; anti-HER2 17 g/mol) into LNPs containing Lipid 8, Cy5 labeled GFP mRNA and GFP mRNA (1:9 Cy5:GFP mass ratio) by adding conjugate and LNPs together and heating the solution without mixing in a thermal cycler at 60 C for 60 min and cooled to 4° C. for 3-5 min. […] After transfection, LNP binding efficiency (Cy5) and transfection efficiency (GFP) was evaluated by flow cytometry. Supernatants were measured for human IFNγ concentration using a commercially available ELISA kit under manufacturers recommended conditions (R&D Systems Duoset).
IFN-γ was assayed using an R&D Duoset […] ELISA kit, PN DY285B. […] Optical density at 450 nm was read on a Spectramax M5 plate reader. […]

CD69 = CD69 upregulation on T cells after LNP transfection (FACS staining); type: cell-based, human; details: approximately 24 hr after targeted Lipid 8 LNPs at approximately 2.5 μg/mL mRNA
Protocol: as §1
LNPs were prepared using the mixing process described in Example 6, the buffer exchange process described in Example 21. […]

human whole blood = experiment: Whole blood transfection of immune cells with Fab targeted mRNA LNPs; type: cell-based; details: Lipid 8 LNP, 2.5 μg/mL mCherry mRNA, 24 hours
Protocol: Venous blood from healthy volunteers was anti-coagulated in heparin tubes (BD Biosciences #367526) and seeded at 50 μL in a 96-well round-bottom plate. Transfection of whole blood was carried out simply by adding nanoparticles containing 5 μg/mL mRNA to the cells and co-culturing at 37° C. until the time of analysis. To assess transfection efficiency, cells were analyzed 24-hours post-transfection by flow cytometry. LNPs used (with and without post-inserted targets) at 2.5 μg/mL:RDM073.23. Cells obtained from human blood were analyzed by flow cytometry. Prior to the analysis of whole blood transfection efficiency, red blood cells were lysed twice with VersaLyse Lysing Solution (Beckman Coulter #A09777) for 10 minutes at room temperature. […]
Compensation for each fluorochrome was performed in the multicolor flow panels using positive and negative compensation beads. Fluorescence minus one (FMO) samples and unstained controls were included to determine the level of background fluorescence and to set the gates for the negative cell populations versus the positive cell populations.
All samples were acquired on a BD LSRFortessa X-20 (BD Biosciences) running […] software (Becton Dickinson). All data collected were analyzed using FlowJo 10.7.1 software and GraphPad Prism version 9.0. […]

human CD8 T cells = experiment: Transfection of human CD8 T cells with Fab-targeted Cy5/GFP mRNA LNPs; type: cell-based; details: Lipid 8 LNP, Cy5/GFP mRNA approximately 2.5 μg/mL, approximately 24 hr, Fab conjugate post-inserted
Protocol: as §2, with “Duoset). […]” for “Duoset).”

B1: TRX2: anti-CD8 Fab, SEQ ID NO: 6 and 7 (antibody)
heavy: QVQLVESGGGVVQPGRSLRLSCAASGFTFSDFGMNWVRQAPGKGLEWVALIYYDGSNKFYADSVKGRFTISRDNSKNTLYLQMNSLRAEDTAVYYCAKPHYDGYYHFFDSWGQGTLVTVSSASTKGPSVFPLAPSSKSTSGGTAALGCLVKDYFPEPVTVSWNSGALTSGVHTFPAVLQSSGLYSLSSVVTVPSSSLGTQTYICNVNHKPSNTKVDKKVEPKSSDKTHTC
light: DIQMTQSPSSLSASVGDRVTITCKGSQDINNYLAWYQQKPGKAPKLLIYNTDILHTGVPSRFSGSGSGTDFTFTISSLQPEDIATYYCYQYNNGYTFGQGTKVEIKRTVAAPSVFIFPPSDEQLKSGTASVVCLLNNFYPREAKVQWKVDNALQSGNSQESVTEQDSKDSTYSLSSTLTLSKADYEKHKVYACEVTHQGLSSPVTKSFNRGES
Human CD3 T cells; Lipid 8 LNP with anti-CD20 CAR (TTR-023) mRNA, approximately 2.5 μg/mL
  % TTR-023+ (anti-CD20 CAR) CD8 and CD4 T cells, in words: transfection was detected over background for TRX2 at 6-9 g/mol Fab
Human CD3 T cells
  % GFP transfection and GFP expression (MFI) of CD8 and CD4 T cells, in words: specific LNP binding and transfection to CD3 and CD8 cells respectively
Human CD3 T cells; listed as TRX2 NoDS Fab
  % GFP transfection and GFP expression (MFI) of CD8 and CD4 T cells, in words: slightly higher % transfection (FIG. 68A) and GFP expression levels (FIG. 68B) than the buried disulfide (bDS) TRX2 Fab
IFNγ
  IFNγ secretion into supernatant, in words: low levels of IFNγ secretion
CD69
  CD69 upregulation on CD8 and CD4 T cells, in words: mediated CD69 expression on CD8 cells only; also recorded: much lower levels of CD69
Human whole blood
  % mCherry+ cells (transfection) in whole blood, in words: efficiently transfects CD8 T-cells without transfection observed in CD4 T-cells
Human CD8 T cells
  transfection (% GFP+, GFP MFI) and binding (% Cy5+, Cy5 MFI), in words: High transfection (FIG. 13A) and binding; also recorded: higher transfection than OKT8
